# According to the supplement of paper PMC12217912:
# This is one part of the list. The full chains were built here from the parent and the listed change. Inactive controls read about 0.05.
# B1: TEV protease; numbered along this chain (parent)
# chain: MGESLFKGPRDYNPISSSICHLTNESDGHTTSLYGIGFGPFIITNKHLFRRNNGTLVVQSLHGVFKVKDTTTLQQHLVDGRDMIIIRMPKDFPPFPQKLKFREPQREERICLVTTNFQTKSMSSMVSDTSCTFPSGDGIFWKHWIQTKDGQCGSPLVSTRDGFIVGIHSASNFTNTNNYFTSVPKNFMELLTNQEAQQWVSGWRLNADSVLWGGHKVFMVKPEEPFQPVKEATQL
# Variants of: B1
# Assay: raw area under fraction-flipped curve 0-4 h after induction (AUC4h, not background-subtracted), DNA-recorder readout of cleavage of the substrate (dimensionless); higher = more cleavage of the substrate by the protease variant
# Conditions: temperature: 34 °C; time window: 0-4 h after rhamnose induction
# 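Further: Bxb1 expression induced with 0.2% (w/v) L-rhamnose at OD600 near 0.5, cultures sampled hourly, flipped fraction per protease–substrate barcode pair counted by paired-end Illumina sequencing.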
Variant,area with substrate ENLDFQS,area with substrate ENLEFQS,area with substrate ENLFFQS,area with substrate ENLGFQS,area with substrate ENLHFQS,area with substrate ENLKFQS,area with substrate ENLLFQS,area with substrate ENLNFQS,area with substrate ENLQFQS,area with substrate ENLRFQS,area with substrate ENLSFQS,area with substrate ENLWFQS,area with substrate ENLPFQS,area with substrate ENLIFQS,area with substrate ENLMFQS,area with substrate ENLVFQS
MGESLFKGPRDYNPISSSICHLTNESDGHTTSLYGIGFGPFIITNKHLFRRNNGTLVVQSLHGVFKVKDTTTLQQHLVDGRDMIIIRMPKDFPPFPQKLKFREPQREERICLVTTNFQTKSMSSMVSDTSCTFPSGDGIFWKHWIQTKDGQCGSPLVSTRDGFIVGIHSASNFTNTNNYFTSVPKNFMELLTNQEAQQWVSGWRLNADSVLWGGHKVFMVKPEEPFIPVKEATQL [Q227I],0.0679,0.0709,0.0726,0.075,0.0691,0.0823,0.101,0.0691,0.0659,0.0645,0.068,0.0563,–,–,–,–
MGESLFKGPRDYNPISSSICHLTNESDGHTTSLYGIGFGPFIITNKHLFRRNNGTLVVQSLHGVFKVKDTTTLQQHLVDGRDMIIIRMPKDFPPFPQKLKFREPQREERICLVTTNFQTKSMSSMVSDTSCTFPSGDGIFWKHWIQTKDGQCGSPLVSTRDGFIVGIHSASNFTNTNNYFTSVPKNFMELLTNQEAQQWVKGWRLNADSVLWGGHKVFMVKPEEPFQPVKEATQL [S201K],–,–,–,–,–,0.0797,0.0955,0.0545,–,–,0.0802,0.0615,0.0429,–,–,–
MGESLFKGPRDYNPISSSICHLTNESDGHTTSLYGIGFGPFIITNKHLFRRNNGTLVVQSLHGVFKVKDTTTLQQHLVDGRDMIIIRMPKDFPPFPQKLKFREPQREERILLVTTNFQTKSMSSMVSDTSCTFPSGDGIFWKHWIQTKDGQCGSPLVSTRDGFIVGIHSASNFTNTNNYFTSVPKNFMELLTNQEAQQWVSGWRLNADSVLWGGHKVFMVKPEEPFQPVKEATQL [C111L],–,–,0.101,–,0.0712,0.0663,–,0.0661,0.0718,–,0.0391,0.0665,–,–,–,–
MGESLFKGPRDYNPISSSICHLTNESDGHTTSLYGIGFGPFIITNKHLFRRNNGTLVVQSLHGVFKVKDTTTLQQHLVDGRDMIIIRMPKDFPPFPQKLKFREPQREERICLVTTNFQTKSMSSMVSDTSCTFPSGDGIFWKHWIQTKDGQCGSPLVSTRDGFIVGIHSASNFTNTNNYFTSVPKNFMELLTNQEAQQWVSGWRLNADSVLWGGHKVFMVKPEEPFQPVEEATQL [K230E],0.0612,–,0.0825,–,0.0675,0.0763,–,0.0661,0.0815,–,0.0735,–,–,0.0695,–,–
MGESLFKGPRDYNPISSSICHLTNESDGHTTSLYGIGFGPFIITNKHLFRRNNGTLVVQSLHGVFKVKDTTTLQQHLVDGRDMIIIRMPKDFPPFPQKLKFREPQREERICLVTTNFQTKSMSSMVSDTSCTFPSGDGIFWKHWIQTKDGQCGSPLVSTRDGFIVGIHSASNFTNTNNYFTSVPKNFMELLTNQEAQQWNSGWRLNADSVLWGGHKVFMVKPEEPFQPVKEATQL [V200N],0.0559,0.0571,–,–,0.0503,0.0827,–,–,–,–,0.0502,–,0.0452,0.053,–,–
MGESLFKGPRDYNPISSSICHLTNESDGHTTSLYGIGFGPFIITNKHLFRRNNGTLVVQSLHGVFKVKDTTTLQQHLVDGRDMIIIRMPKDFPPFPQKLKFREPQREERICLVTTNFQTKSMSSMVSDTSCTFPSGDGIFWKHWIQTKDGQCGSPLVSTRDGFIVGIHSASNFTNTNNYFTSVPKNFMELLTNQEAQQWVSGYRLNADSVLWGGHKVFMVKPEEPFQPVKEATQL [W203Y],0.051,0.0853,0.0911,–,0.0661,–,0.0567,–,0.0631,–,–,–,–,0.0615,0.0746,–
MGESLFKGPRDYNPISSSICHLTNESDGHTTSLYGIGFGPFIITNKHLFRRNNGTLVVQSLHGVFKVKDTTTLQQHLVDGRDMIIIRMPKDFPPFPQKLKFREPQREERICLVTTNFQTKSMSSMVSDTSCTFPSGDGIFWKHWIQTKDGQCGSPLVSTRDGFIVGIHSASNFTNTNNYFTSVPKNFMELLTNQEAQQWVSGWRLNADSVLWGGHKVPMVKPEEPFQPVKEATQL [F218P],–,–,0.0632,–,–,0.066,0.0615,0.0506,–,–,0.0618,0.0767,0.0575,–,0.0572,0.0522
MGESLFKGPRDYNPISSSICHLTNESDGHTTSLYGIGFGPFIITNKHLFRRNNGTLVVQSLHGVFKVKDTTTLQQHLVDGRDMIIIRMPKDFPPFPQKLKFREPQREERICLVTTNFQTKSMSSMVSDTSCTFPSGDGIFWKHWIQTKDGQCGSPLVSTRDGFIVGIHSASNFTNTNNYFTSVPKNFMELLTNREAQQWVSGWRLNADSVLWGGHKVFMVKPEEPFQPVKEATQL [Q194R],0.0664,0.0727,0.0853,–,0.0742,0.0828,–,0.0618,–,0.0797,0.0606,0.0577,0.0537,0.0621,–,–
